Each structure is given as a SMILES string. Structures can show the parent of a compound that is named as a salt. Out of some 1,300 compounds screened, about 40 (3%) showed activity. The list shows a part of the results.

This test has as its system Plasmodium falciparum NF54/iGP1_RE9H ulg8 stage V gametocytes. The test is described as follows: gametocyte viability (luciferase signal relative to DMSO control) (% of DMSO control); higher = less gametocytocidal activity, active = 50 or less. As to conditions: exposure time: 72 h. The method, boiled down:
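NF54/iGP1_RE9Hulg8 stage V gametocytes (day 12; ~2.5% gametocytemia, 3% hematocrit) were incubated with compounds at 10 µM or 1 µM final, in one well each, for 72 h at 37 °C in medium with 0.5% Albumax II. Luminescence after D-luciferin addition was read on an IVIS Lumina II. Viability refers to the mean of plate DMSO vehicle wells.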

For the molecule `CS(=O)(=O)c1ccc(C2=C(c3ccccc3)C(=O)OC2)cc1` [Rofecoxib], the gametocyte viability (concentration: 1 µM) was inactive: 85.4 and the gametocyte viability (concentration: 10 µM) is inactive: 81.7.

`Cn1c(=O)c2[nH]cnc2n(C)c1=O` [Aminophylline]: the gametocyte viability is inactive: 85.5 (concentration: 1 µM) and inactive: 81.6 (concentration: 10 µM).

As to `Cc1[nH]c(=O)c(C#N)cc1-c1ccncc1` [Milrinone], the gametocyte viability reads like this: (concentration: 1 µM) inactive: 81; (concentration: 10 µM) inactive: 82.1.

Turning to `Cc1ccnc2c1NC(=O)c1cccnc1N2C1CC1` [Nevirapine], the gametocyte viability is inactive: 79.7 (concentration: 1 µM) and inactive: 74.2 (concentration: 10 µM).

Regarding `CN(C)CCC=C1c2ccccc2CCc2ccccc21` [Amitryptiline hydrochloride], the gametocyte viability is, setting by setting: (concentration: 1 µM) inactive: 86.7; (concentration: 10 µM) inactive: 86.2.

`COc1cc(Cc2cnc(N)nc2N)cc(OC)c1OC` [Trimethoprim]: the gametocyte viability was inactive: 83.9 (concentration: 1 µM) and inactive: 89.1 (concentration: 10 µM).

Regarding `COc1cc(-c2ccc(N=Nc3ccc4c(S(=O)(=O)O)cc(S(=O)(=O)O)c(N)c4c3O)c(OC)c2)ccc1N=Nc1ccc2c(S(=O)(=O)O)cc(S(=O)(=O)O)c(N)c2c1O` [Chicago sky blue 6B], the gametocyte viability is, setting by setting: (concentration: 1 µM) inactive: 80.1; (concentration: 10 µM) inactive: 82.1.

For `CCN(CC)CCOC(=O)C(c1ccccc1)C1CCCCC1` (centres undefined) [Drofenine hydrochloride], the gametocyte viability is, setting by setting: (concentration: 1 µM) inactive: 84; (concentration: 10 µM) inactive: 84.8.

Turning to `COCC1=C(C(=O)OC(C)OC(=O)OC(C)C)N2C(=O)[C@@H](NC(=O)/C(=N\OC)c3csc(N)n3)[C@H]2SC1` (some centres undefined) [Cefpodoxime proxetil], the gametocyte viability is, setting by setting: (concentration: 1 µM) inactive: 89.6; (concentration: 10 µM) inactive: 84.3.

With `COc1cc2c(cc1OC)C(=O)C(CC1CCN(Cc3ccccc3)CC1)C2` (centres undefined) [Donepezil hydrochloride], the gametocyte viability (concentration: 1 µM) is inactive: 78.9 and the gametocyte viability (concentration: 10 µM) was inactive: 75.6.

Consider `CCCCC(CC)CN1CN(CC(CC)CCCC)CC(C)(N)C1` (centres undefined) [Hexetidine], for which the gametocyte viability was inactive: 90.8 (concentration: 1 µM) and inactive: 102 (concentration: 10 µM).

For the molecule `O=C(CCCN1CCC(O)(c2ccc(Br)cc2)CC1)c1ccc(F)cc1` [Bromperidol], the gametocyte viability is, setting by setting: (concentration: 1 µM) inactive: 87.4; (concentration: 10 µM) inactive: 92.3.

Turning to `CO[C@@]1(NC(=O)Cc2cccs2)C(=O)N2C(C(=O)O)=C(COC(N)=O)CS[C@@H]21` [Cefoxitin sodium salt], the gametocyte viability by setting is: (concentration: 1 µM) inactive: 85.9; (concentration: 10 µM) inactive: 81.1.

In the case of `CC(=O)c1ccc2c(c1)N(CCCN1CCC(CCO)CC1)c1ccccc1S2` [Piperacetazine], the gametocyte viability by setting is: (concentration: 1 µM) inactive: 79.4; (concentration: 10 µM) inactive: 80.8.

As for `N=C(N)NC(=O)c1nc(Cl)c(N)nc1N` [Amiloride hydrochloride dihydrate], the gametocyte viability is inactive: 91.4 (concentration: 1 µM) and inactive: 84.3 (concentration: 10 µM).

Regarding `O=C1NCN(c2ccccc2)C12CCN(CCCC(c1ccc(F)cc1)c1ccc(F)cc1)CC2` [Fluspirilen], the gametocyte viability runs as follows: (concentration: 1 µM) inactive: 88.5; (concentration: 10 µM) inactive: 88.4.

`CC(C)(C)C(=O)OCOC(=O)[C@@H]1N2C(=O)[C@@H](NC(=O)[C@H](N)c3ccccc3)[C@H]2SC1(C)C` [Pivampicillin]: the gametocyte viability reads like this: (concentration: 1 µM) inactive: 87.7; (concentration: 10 µM) inactive: 83.6.

Regarding `CCOc1ccccc1OCC1CNCCO1` (centres undefined) [Viloxazine hydrochloride], the gametocyte viability by setting is: (concentration: 1 µM) inactive: 96.7; (concentration: 10 µM) inactive: 99.3.

For the molecule `CC[C@H]1OC(=O)[C@H](C)[C@@H](O[C@H]2C[C@@](C)(OC)[C@@H](O)[C@H](C)O2)[C@H](C)[C@@H](O[C@@H]2O[C@H](C)C[C@H](N(C)C)[C@H]2O)[C@](C)(OC)C[C@@H](C)C(=O)[C@H](C)[C@@H](O)[C@]1(C)O` [Clarithromycin], the gametocyte viability (concentration: 1 µM) was inactive: 92.8 and the gametocyte viability (concentration: 10 µM) was inactive: 91.

`N[C@@H]1CCCCN(c2c(F)cc3c(=O)c(C(=O)O)cn(C4CC4)c3c2Cl)C1` [Besifloxacin hydrochloride]: the gametocyte viability runs as follows: (concentration: 1 µM) inactive: 82.7; (concentration: 10 µM) inactive: 80.5.

For `CCCCC1=NC2(CCCC2)C(=O)N1Cc1ccc(-c2ccccc2-c2nnn[nH]2)cc1` [Irbesartan], the gametocyte viability (concentration: 1 µM) was inactive: 80.9 and the gametocyte viability (concentration: 10 µM) was inactive: 76.9.

In the case of `CCCCOC(=O)c1ccc(N)cc1` [Butamben], the gametocyte viability reads like this: (concentration: 1 µM) inactive: 85.3; (concentration: 10 µM) inactive: 86.3.

Turning to `CCOC(=O)[C@H](CCc1ccccc1)N[C@@H](C)C(=O)N1[C@H](C(=O)O)C[C@@H]2CCC[C@@H]21` [Ramipril], the gametocyte viability (concentration: 1 µM) was inactive: 82.9 and the gametocyte viability (concentration: 10 µM) was inactive: 86.2.

Take `CCOc1ccc2c(c1)C(C)=CC(C)(C)N2` [Ethoxyquin]: the gametocyte viability runs as follows: (concentration: 1 µM) inactive: 84.2; (concentration: 10 µM) inactive: 83.1.

In the case of `NC(=O)c1ncn([C@@H]2O[C@H](CO)[C@@H](O)[C@H]2O)n1` [Ribavirin], the gametocyte viability is inactive: 92.6 (concentration: 1 µM) and inactive: 87.4 (concentration: 10 µM).

Turning to `CC(C)COCC(CN(Cc1ccccc1)c1ccccc1)N1CCCC1` (centres undefined) [Bepridil hydrochloride], the gametocyte viability (concentration: 1 µM) is inactive: 81.5 and the gametocyte viability (concentration: 10 µM) is inactive: 107.

Regarding `CN[C@H](CC(C)C)C(=O)N[C@H]1C(=O)N[C@@H](CC(N)=O)C(=O)N[C@H]2C(=O)N[C@H]3C(=O)N[C@H](C(=O)N[C@H](C(=O)O)c4cc(O)cc(O)c4-c4cc3ccc4O)[C@H](O)c3ccc(c(Cl)c3)Oc3cc2cc(c3O[C@@H]2O[C@H](CO)[C@@H](O)[C@H](O)[C@H]2O[C@H]2C[C@](C)(N)[C@H](O)[C@H](C)O2)Oc2ccc(cc2Cl)[C@H]1O` [Vancomycin hydrochloride], the gametocyte viability reads like this: (concentration: 1 µM) inactive: 82.4; (concentration: 10 µM) inactive: 88.8.

As for `CNS(=O)(=O)Cc1ccc2[nH]cc(CCN(C)C)c2c1` [Sumatriptan succinate], the gametocyte viability (concentration: 1 µM) was inactive: 96.5 and the gametocyte viability (concentration: 10 µM) was inactive: 90.6.

For the molecule `NS(=O)(=O)c1cc2c(cc1Cl)N=CNS2(=O)=O` [Chlorothiazide], the gametocyte viability reads like this: (concentration: 1 µM) inactive: 84.2; (concentration: 10 µM) inactive: 89.1.

Consider `COc1cc(C(=O)NS(=O)(=O)c2ccccc2C)ccc1Cc1cn(C)c2ccc(NC(=O)OC3CCCC3)cc12` [Zafirlukast], for which the gametocyte viability (concentration: 1 µM) was inactive: 92.7 and the gametocyte viability (concentration: 10 µM) is inactive: 91.

With `Cc1cc(C2CCCCC2)n(O)c(=O)c1` [Ciclopirox ethanolamine], the gametocyte viability (concentration: 1 µM) is inactive: 85.5 and the gametocyte viability (concentration: 10 µM) is inactive: 86.8.

`NS(=O)(=O)c1cc(C(=O)O)c(NCc2ccco2)cc1Cl` [Furosemide]: the gametocyte viability is inactive: 78.6 (concentration: 1 µM) and inactive: 87.7 (concentration: 10 µM).

The values are drawn from the supplement of paper PMC12297408.
